Assay results from the supplement of paper PMC4967469.

Legend:
Test in all cases: Viability of human cancer cell lines after 72 h of drug (GDSC screen)
QL-XII-47 = compound: C=CC(=O)N1CCc2ccc(-n3c(=O)ccc4cnc5ccc(-c6cnn(C)c6)cc5c43)cc21 [QL-XII-47]; details: top dose 10.24 µM; top dose inferred
Method: (§1)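 Human cancer cell lines in 384-well plates, medium with 10% serum, drug for 72 h over a 256-fold dose range (nine 2-fold or five 4-fold steps up to the top dose). Adherent lines were fixed and stained with the nucleic acid dye Syto60, suspension lines read with resazurin; signal relative to control wells, capped at 0 and 100%. One two-parameter sigmoid per drug and line, fitted in a mixed model over all curves with the slope shared within a line.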

KIN001-266 = compound: CCN1CCC(n2cc(CNc3cc(Cl)c4ncc(C#N)c(Nc5ccc(F)c(Cl)c5)c4c3)nn2)CC1 [KIN001-266]; details: top dose 20 µM; top dose inferred
Method: as §1

BAY 61-3606 = compound: COc1ccc(-c2cc3nccn3c(Nc3ncccc3C(N)=O)n2)cc1OC [BAY 61-3606]; details: top dose 8 µM; top dose inferred
Method: as §1

CCT007093 = compound: O=C1/C(=C/c2cccs2)CC/C1=C\c1cccs1 [CCT007093]; details: top dose 6.6 µM; top dose inferred
Method: as §1

Row | Cell Line | AUC (QL-XII-47) | IC50 (QL-XII-47) [µM] | AUC (KIN001-266) | IC50 (KIN001-266) [µM] | AUC (BAY 61-3606) | IC50 (BAY 61-3606) [µM] | AUC (CCT007093) | IC50 (CCT007093) [µM]
1 | TE-1 (oesophagus, adherent) | 0.8 | 6.56 | 0.927 | > 20 | 0.982 | > 8 | 0.963 | > 6.6
2 | TE-5 (oesophagus, adherent) | 0.808 | 6.32 | 0.973 | > 20 | 0.792 | 4.26 | 0.945 | > 6.6
3 | TE-6 (oesophagus, adherent) | 0.903 | > 10.2 | 0.912 | > 20 | 0.859 | > 8 | 0.938 | > 6.6
4 | TE-8 (oesophagus, adherent) | 0.924 | > 10.2 | 0.881 | > 20 | 0.738 | 2.53 | 0.981 | > 6.6
5 | TE-9 (oesophagus, adherent) | 0.984 | > 10.2 | 0.954 | > 20 | 0.926 | > 8 | 0.984 | > 6.6
6 | TE-10 (oesophagus, adherent) | 0.663 | 1.79 | 0.893 | > 20 | 0.68 | 1.58 | 0.986 | > 6.6
7 | TE-11 (oesophagus, adherent) | 0.92 | > 10.2 | 0.988 | > 20 | 0.968 | > 8 | 0.983 | > 6.6
8 | TE-12 (oesophagus, suspension) | 0.728 | 3.34 | 0.903 | > 20 | 0.505 | 0.519 | 0.978 | > 6.6
9 | TE-15 (oesophagus, suspension) | 0.622 | 1.46 | 0.766 | 8.31 | 0.609 | 1.04 | 0.941 | > 6.6
10 | TGBC1TKB (biliary tract, adherent) | 0.989 | > 10.2 | 0.875 | 19.5 | 0.977 | > 8 | 0.975 | > 6.6
11 | TGBC11TKB (stomach, adherent) | 0.932 | > 10.2 | 0.972 | > 20 | 0.852 | 5.08 | 0.979 | > 6.6
12 | TGBC24TKB (biliary tract, adherent) | 0.906 | > 10.2 | 0.966 | > 20 | 0.99 | > 8 | 0.989 | > 6.6
13 | TGW (neuroblastoma, adherent) | 0.672 | 1.78 | 0.831 | 10.3 | 0.921 | > 8 | 0.992 | > 6.6
14 | THP-1 (acute myeloid leukaemia, suspension) | 0.55 | 0.864 | 0.663 | 3.36 | 0.911 | > 8 | 0.991 | > 6.6
15 | TK10 (kidney, adherent) | 0.469 | 0.519 | 0.809 | 13.2 | 0.799 | 4.81 | 0.978 | > 6.6
16 | TK (B-cell lymphoma, suspension) | 0.758 | 3.26 | 0.857 | 14 | 0.824 | 4.21 | 0.99 | > 6.6

Row | Cell Line | AUC (QL-XII-47) | IC50 (QL-XII-47) [µM] | AUC (KIN001-266) | IC50 (KIN001-266) [µM] | AUC (BAY 61-3606) | IC50 (BAY 61-3606) [µM] | AUC (CCT007093) | IC50 (CCT007093) [µM]
17 | TMK-1 (stomach, adherent) | 0.939 | > 10.2 | 0.912 | > 20 | 0.811 | 4.58 | 0.864 | 6.35
18 | TOV-21G (ovary, adherent) | 0.376 | 0.283 | 0.985 | > 20 | 0.956 | > 8 | 0.945 | > 6.6
19 | TOV-112D (ovary, adherent) | 0.496 | 0.623 | 0.898 | > 20 | 0.674 | 1.53 | 0.971 | > 6.6
20 | TT2609-C02 (thyroid, adherent) | 0.602 | 1.24 | 0.892 | > 20 | 0.595 | 0.929 | 0.971 | > 6.6
21 | TT (thyroid, adherent) | 0.982 | > 10.2 | 0.965 | > 20 | 0.949 | > 8 | 0.983 | > 6.6
22 | TUR (B-cell lymphoma, suspension) | 0.79 | 4.18 | 0.866 | 15.6 | 0.779 | 3 | 0.971 | > 6.6
23 | TYK-nu (ovary, adherent) | 0.796 | 5.16 | 0.86 | 18.8 | 0.916 | > 8 | 0.984 | > 6.6
24 | U031 (kidney, adherent) | 0.584 | 1.1 | 0.872 | > 20 | 0.824 | 5 | 0.96 | > 6.6
25 | U251 (glioma, adherent) | 0.383 | 0.31 | 0.835 | 12.3 | 0.945 | > 8 | 0.983 | > 6.6
26 | U-2-OS (osteosarcoma, adherent) | 0.973 | > 10.2 | 0.985 | > 20 | 0.985 | > 8 | 0.98 | > 6.6
27 | U-87-MG (glioma, adherent) | 0.714 | 2.89 | 0.868 | > 20 | 0.931 | > 8 | 0.961 | > 6.6
28 | U-118-MG (glioma, adherent) | 0.985 | > 10.2 | 0.955 | > 20 | 0.854 | 7.96 | 0.962 | > 6.6
29 | U-698-M (B-cell leukaemia, suspension) | 0.827 | 6.28 | 0.64 | 3.04 | 0.626 | 1.11 | 0.987 | > 6.6
30 | UACC-62 (melanoma, adherent) | 0.898 | > 10.2 | 0.983 | > 20 | 0.983 | > 8 | 0.985 | > 6.6
31 | UACC-257 (melanoma, adherent) | 0.735 | 3.59 | 0.705 | 5.49 | 0.982 | > 8 | 0.911 | > 6.6

IC50 is the fitted dose that halves viability relative to control wells, and lower means more sensitive; fits outside the tested doses are given as limits. The AUC spans the tested range (256-fold, ending at the top dose) of the same fit; values near 1 show little effect. Where the top dose is marked as inferred, it comes from the curve model; the source does not state it.
